Laboratory results published in patent EP2495257A2 (Abbott Laboratories, dated 2012).

Biological target: human IL-18 (human, UniProt Q14116 37-193)
Assay: cell-based or functional assay

- Potency (IC50, M), KG-1 bioassay: 1.8e-10 M
B1: DVD1218LL (anti-IL-12/IL-18 DVD-Ig, 12-18-C, long linker) (bispecific antibody, human IgG1, kappa, lambda)
heavy: QVQLVESGGGVVQPGRSLRLSCAASGFTFSSYGMHWVRQAPGKGLEWVAFIRYDGSNKYYADSVKGRFTISRDNSKNTLYLQMNSLRAEDTAVYYCKTHGSHDNWGQGTMVTVSSASTKGPSVFPLAPEVQLVQSGTEVKKPGESLKISCKGSGYTVTSYWIGWVRQMPGKGLEWMGFIYPGDSETRYSPTFQGQVTISADKSFNTAFLQWSSLKASDTAMYYCARVGSGWYPYTFDIWGQGTMVTVSS[no letters for human IgG1 constant region]
light: QSVLTQPPSVSGAPGQRVTISCSGSRSNIGSNTVKWYQQLPGTAPKLLIYYNDQRPSGVPDRFSGSKSGTSASLAITGLQAEDEADYYCQSYDRYTHPALLFGTGTKVTVLGQPKAAPSVTLFPPEIVMTQSPATLSVSPGERATLSCRASESISSNLAWYQQKPGQAPRLFIYTASTRATDIPARFSGSGSGTEFTLTISSLQSEDFAVYYCQQYNNWPSITFGQGTRLEIKRTVAAPSVFIFPPSDEQLKSGTASVVCLLNNFYPREAKVQWKVDNALQSGNSQESVTEQDSKDSTYSLSSTLTLSKADYEKHKVYACEVTHQGLSSPVTKSFNRGEC

- Potency (IC50, M), KG-1 bioassay: 1.8e-10 M
B2: DVD1218SL (anti-IL-12/IL-18 DVD-Ig, 12-18-C, short linker) (bispecific antibody, human IgG1, kappa)
heavy: QVQLVESGGGVVQPGRSLRLSCAASGFTFSSYGMHWVRQAPGKGLEWVAFIRYDGSNKYYADSVKGRFTISRDNSKNTLYLQMNSLRAEDTAVYYCKTHGSHDNWGQGTMVTVSSASTKGPEVQLVQSGTEVKKPGESLKISCKGSGYTVTSYWIGWVRQMPGKGLEWMGFIYPGDSETRYSPTFQGQVTISADKSFNTAFLQWSSLKASDTAMYYCARVGSGWYPYTFDIWGQGTMVTVSS[no letters for human IgG1 constant region]
light: QSVLTQPPSVSGAPGQRVTISCSGSRSNIGSNTVKWYQQLPGTAPKLLIYYNDQRPSGVPDRFSGSKSGTSASLAITGLQAEDEADYYCQSYDRYTHPALLFGTGTKVTVLGQPKAAPEIVMTQSPATLSVSPGERATLSCRASESISSNLAWYQQKPGQAPRLFIYTASTRATDIPARFSGSGSGTEFTLTISSLQSEDFAVYYCQQYNNWPSITFGQGTRLEIKRTVAAPSVFIFPPSDEQLKSGTASVVCLLNNFYPREAKVQWKVDNALQSGNSQESVTEQDSKDSTYSLSSTLTLSKADYEKHKVYACEVTHQGLSSPVTKSFNRGEC

Each block holds one binder with its values, some of them ahead of it.
